The text below walks through data of PMC12820563.

Some of the results follow. The list includes weakly bound sequences.

The assay deals with T1, MBP-FoxP3dN (UniProt Q99JB6).
T1 sequence: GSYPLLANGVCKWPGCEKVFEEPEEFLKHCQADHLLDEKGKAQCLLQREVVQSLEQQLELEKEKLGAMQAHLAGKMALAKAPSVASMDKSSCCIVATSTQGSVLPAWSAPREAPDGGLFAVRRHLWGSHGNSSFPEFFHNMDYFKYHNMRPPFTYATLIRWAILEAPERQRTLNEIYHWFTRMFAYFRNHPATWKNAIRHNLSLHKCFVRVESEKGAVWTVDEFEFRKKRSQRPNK
Nature of the assay: PD-seq (MBP pull-down with sequencing). As to conditions: 20 mM Tris-HCl pH 7.5, 100 mM NaCl, 1.5 mM MgCl2, 0.4 uM protein, 0.1 uM dsDNA library, 30 min, room temperature, amylose pull-down; high values mean tight binding; double strand, one strand shown.
Turning to “GATGATTGTTCTCCCAGCTGATGAATTATCGTGGTCGAGTAAACAAATTTTCCTAATCTTTCTGTTCAAGCGCCATCTAC”, the binding signal (RPM ratio (pull-down/input)) worked out at 0.336. In the case of “GATGATTGTTCTCCCAGCTGATGAATTATCGCGATCGAGTAAACAAATTTTCCTAATCTTTCTGTTCAAGCGCCATCTAC” it was 0.519; in that of “GATGATTGTTCTCCCAGCTGATGAATTGAAAAGGTCGAGTAAACAAATTTTCCTAATCTTTCTGTTCAAGCGCCATCTAC”, 0.133. For the sequence “GATGATTGTTCTCCCAGCTGATGAATTCGCCTCGTCGAGTAAACAAATTTTCCTAATCTTTCTGTTCAAGCGCCATCTAC”, the binding signal (RPM ratio (pull-down/input)) was 1.01. Under “GATGATTGTTCTCCCAGCTGATGAATTGAGCCCGTCGAGTAAACAAATTTTCCTAATCTTTCTGTTCAAGCGCCATCTAC” stands 1.06; under “GATGATTGTTCTCCCAGCTGATGAATTTTACGGATCGAGTAAACAAATTTTCCTAATCTTTCTGTTCAAGCGCCATCTAC”, 0.184. As to “GATGATTGTTCTCCCAGCTGATGAATTGTACCTATCGAGTAAACAAATTTTCCTAATCTTTCTGTTCAAGCGCCATCTAC”, the binding signal (RPM ratio (pull-down/input)) stood at 0.561.

As for “GATGATTGTTCTCCCAGCTGATGAATTTAGTCGTTCGAGTAAACAAATTTTCCTAATCTTTCTGTTCAAGCGCCATCTAC”, the binding signal (RPM ratio (pull-down/input)) worked out at 0.962. In the case of “GATGATTGTTCTCCCAGCTGATGAATTTTGGAATTCGAGTAAACAAATTTTCCTAATCTTTCTGTTCAAGCGCCATCTAC” it was 0.747; in that of “GATGATTGTTCTCCCAGCTGATGAATTCCATCTGTCGAGTAAACAAATTTTCCTAATCTTTCTGTTCAAGCGCCATCTAC”, 0.414; in that of “GATGATTGTTCTCCCAGCTGATGAATTACTTTTGTCGAGTAAACAAATTTTCCTAATCTTTCTGTTCAAGCGCCATCTAC”, 0.703. As to “GATGATTGTTCTCCCAGCTGATGAATTGTTCCCTTCGAGTAAACAAATTTTCCTAATCTTTCTGTTCAAGCGCCATCTAC”, the binding signal (RPM ratio (pull-down/input)) came out at 0.416. With “GATGATTGTTCTCCCAGCTGATGAATTGCACCACTCGAGTAAACAAATTTTCCTAATCTTTCTGTTCAAGCGCCATCTAC”, the binding signal (RPM ratio (pull-down/input)) is 1.03. Under “GATGATTGTTCTCCCAGCTGATGAATTGGTGGGATCGAGTAAACAAATTTTCCTAATCTTTCTGTTCAAGCGCCATCTAC” stands 0.401.

For “GATGATTGTTCTCCCAGCTGATGAATTCGATACGTCGAGTAAACAAATTTTCCTAATCTTTCTGTTCAAGCGCCATCTAC”, the binding signal (RPM ratio (pull-down/input)) was determined as 0.656.

Consider “GATGATTGTTCTCCCAGCTGATGAATTCAATACCTCGAGTAAACAAATTTTCCTAATCTTTCTGTTCAAGCGCCATCTAC”, for which the binding signal (RPM ratio (pull-down/input)) was 0.429.

Regarding “GATGATTGTTCTCCCAGCTGATGAATTTGTGCGTTCGAGTAAACAAATTTTCCTAATCTTTCTGTTCAAGCGCCATCTAC”, the binding signal (RPM ratio (pull-down/input)) amounted to 3.7. Under “GATGATTGTTCTCCCAGCTGATGAATTACTGGCGTCGAGTAAACAAATTTTCCTAATCTTTCTGTTCAAGCGCCATCTAC” stands 0.476. Regarding “GATGATTGTTCTCCCAGCTGATGAATTGCCCTACTCGAGTAAACAAATTTTCCTAATCTTTCTGTTCAAGCGCCATCTAC”, the binding signal (RPM ratio (pull-down/input)) amounted to 0.438.

For “GATGATTGTTCTCCCAGCTGATGAATTTCAAGTTTCGAGTAAACAAATTTTCCTAATCTTTCTGTTCAAGCGCCATCTAC”, the binding signal (RPM ratio (pull-down/input)) was 0.283. As for “GATGATTGTTCTCCCAGCTGATGAATTCAAATGCTCGAGTAAACAAATTTTCCTAATCTTTCTGTTCAAGCGCCATCTAC”, the binding signal (RPM ratio (pull-down/input)) was 0.736.

For “GATGATTGTTCTCCCAGCTGATGAATTAGCCCTATCGAGTAAACAAATTTTCCTAATCTTTCTGTTCAAGCGCCATCTAC”, the binding signal (RPM ratio (pull-down/input)) amounted to 0.35. In the case of “GATGATTGTTCTCCCAGCTGATGAATTAAGTTCATCGAGTAAACAAATTTTCCTAATCTTTCTGTTCAAGCGCCATCTAC” it was 0.538; in that of “GATGATTGTTCTCCCAGCTGATGAATTTGGCATGTCGAGTAAACAAATTTTCCTAATCTTTCTGTTCAAGCGCCATCTAC”, 4.91; in that of “GATGATTGTTCTCCCAGCTGATGAATTATTTGTGTCGAGTAAACAAATTTTCCTAATCTTTCTGTTCAAGCGCCATCTAC”, 2.76. Take “GATGATTGTTCTCCCAGCTGATGAATTGCGCTGTTCGAGTAAACAAATTTTCCTAATCTTTCTGTTCAAGCGCCATCTAC”: the binding signal (RPM ratio (pull-down/input)) was 1.63. As for “GATGATTGTTCTCCCAGCTGATGAATTTATTCGATCGAGTAAACAAATTTTCCTAATCTTTCTGTTCAAGCGCCATCTAC”, the binding signal (RPM ratio (pull-down/input)) was found to be 0.329. “GATGATTGTTCTCCCAGCTGATGAATTCGGATACTCGAGTAAACAAATTTTCCTAATCTTTCTGTTCAAGCGCCATCTAC”: the binding signal (RPM ratio (pull-down/input)) is 0.758. In the case of “GATGATTGTTCTCCCAGCTGATGAATTGGGAGTATCGAGTAAACAAATTTTCCTAATCTTTCTGTTCAAGCGCCATCTAC” it was 0.577; in that of “GATGATTGTTCTCCCAGCTGATGAATTACAGATGTCGAGTAAACAAATTTTCCTAATCTTTCTGTTCAAGCGCCATCTAC”, 0.512. Turning to “GATGATTGTTCTCCCAGCTGATGAATTACTGCCATCGAGTAAACAAATTTTCCTAATCTTTCTGTTCAAGCGCCATCTAC”, the binding signal (RPM ratio (pull-down/input)) came out at 1.87. As to “GATGATTGTTCTCCCAGCTGATGAATTTCTCTTCTCGAGTAAACAAATTTTCCTAATCTTTCTGTTCAAGCGCCATCTAC”, the binding signal (RPM ratio (pull-down/input)) is 0.263.

Regarding “GATGATTGTTCTCCCAGCTGATGAATTTAAATCGTCGAGTAAACAAATTTTCCTAATCTTTCTGTTCAAGCGCCATCTAC”, the binding signal (RPM ratio (pull-down/input)) came to 0.398. Consider “GATGATTGTTCTCCCAGCTGATGAATTAGTGGTTTCGAGTAAACAAATTTTCCTAATCTTTCTGTTCAAGCGCCATCTAC”, for which the binding signal (RPM ratio (pull-down/input)) was 2.35. Under “GATGATTGTTCTCCCAGCTGATGAATTGCTTTGCTCGAGTAAACAAATTTTCCTAATCTTTCTGTTCAAGCGCCATCTAC” stands 1.22; under “GATGATTGTTCTCCCAGCTGATGAATTACCACGGTCGAGTAAACAAATTTTCCTAATCTTTCTGTTCAAGCGCCATCTAC”, 0.257. Under “GATGATTGTTCTCCCAGCTGATGAATTCCGTACCTCGAGTAAACAAATTTTCCTAATCTTTCTGTTCAAGCGCCATCTAC” stands 0.892. With “GATGATTGTTCTCCCAGCTGATGAATTTAAGTAATCGAGTAAACAAATTTTCCTAATCTTTCTGTTCAAGCGCCATCTAC”, the binding signal (RPM ratio (pull-down/input)) came out at 0.624. Under “GATGATTGTTCTCCCAGCTGATGAATTTGGGTAATCGAGTAAACAAATTTTCCTAATCTTTCTGTTCAAGCGCCATCTAC” stands 0.706; under “GATGATTGTTCTCCCAGCTGATGAATTTTACGTCTCGAGTAAACAAATTTTCCTAATCTTTCTGTTCAAGCGCCATCTAC”, 0.465. In the case of “GATGATTGTTCTCCCAGCTGATGAATTTCCCCTATCGAGTAAACAAATTTTCCTAATCTTTCTGTTCAAGCGCCATCTAC” it was 0.274; in that of “GATGATTGTTCTCCCAGCTGATGAATTACAAGGATCGAGTAAACAAATTTTCCTAATCTTTCTGTTCAAGCGCCATCTAC”, 0.29. In the case of “GATGATTGTTCTCCCAGCTGATGAATTCATCTTGTCGAGTAAACAAATTTTCCTAATCTTTCTGTTCAAGCGCCATCTAC” it was 0.398; in that of “GATGATTGTTCTCCCAGCTGATGAATTTTCTGACTCGAGTAAACAAATTTTCCTAATCTTTCTGTTCAAGCGCCATCTAC”, 0.236.

For “GATGATTGTTCTCCCAGCTGATGAATTCTCACAATCGAGTAAACAAATTTTCCTAATCTTTCTGTTCAAGCGCCATCTAC”, the binding signal (RPM ratio (pull-down/input)) stood at 0.373. In the case of “GATGATTGTTCTCCCAGCTGATGAATTCTTCTACTCGAGTAAACAAATTTTCCTAATCTTTCTGTTCAAGCGCCATCTAC” it was 0.277; in that of “GATGATTGTTCTCCCAGCTGATGAATTTTGGATATCGAGTAAACAAATTTTCCTAATCTTTCTGTTCAAGCGCCATCTAC”, 0.75.

In the case of “GATGATTGTTCTCCCAGCTGATGAATTCTAGAGGTCGAGTAAACAAATTTTCCTAATCTTTCTGTTCAAGCGCCATCTAC”, the binding signal (RPM ratio (pull-down/input)) was found to be 0.252. On to “GATGATTGTTCTCCCAGCTGATGAATTAACTTCATCGAGTAAACAAATTTTCCTAATCTTTCTGTTCAAGCGCCATCTAC”, for which the binding signal (RPM ratio (pull-down/input)) was 0.326. Under “GATGATTGTTCTCCCAGCTGATGAATTACGATTGTCGAGTAAACAAATTTTCCTAATCTTTCTGTTCAAGCGCCATCTAC” stands 2.08. Under “GATGATTGTTCTCCCAGCTGATGAATTGTCGGGCTCGAGTAAACAAATTTTCCTAATCTTTCTGTTCAAGCGCCATCTAC” stands 0.296; under “GATGATTGTTCTCCCAGCTGATGAATTGCCAGTATCGAGTAAACAAATTTTCCTAATCTTTCTGTTCAAGCGCCATCTAC”, 0.761; under “GATGATTGTTCTCCCAGCTGATGAATTCTTCGGTTCGAGTAAACAAATTTTCCTAATCTTTCTGTTCAAGCGCCATCTAC”, 0.242. In the case of “GATGATTGTTCTCCCAGCTGATGAATTGTATACGTCGAGTAAACAAATTTTCCTAATCTTTCTGTTCAAGCGCCATCTAC” it was 4.38; in that of “GATGATTGTTCTCCCAGCTGATGAATTCCAATACTCGAGTAAACAAATTTTCCTAATCTTTCTGTTCAAGCGCCATCTAC”, 0.519.

On to “GATGATTGTTCTCCCAGCTGATGAATTTGCGGACTCGAGTAAACAAATTTTCCTAATCTTTCTGTTCAAGCGCCATCTAC”, for which the binding signal (RPM ratio (pull-down/input)) stood at 1. In the case of “GATGATTGTTCTCCCAGCTGATGAATTGTCCCCATCGAGTAAACAAATTTTCCTAATCTTTCTGTTCAAGCGCCATCTAC” it was 0.395; in that of “GATGATTGTTCTCCCAGCTGATGAATTAAATCCCTCGAGTAAACAAATTTTCCTAATCTTTCTGTTCAAGCGCCATCTAC”, 0.255. Consider “GATGATTGTTCTCCCAGCTGATGAATTCAGAGTATCGAGTAAACAAATTTTCCTAATCTTTCTGTTCAAGCGCCATCTAC”, for which the binding signal (RPM ratio (pull-down/input)) stood at 0.506. On to “GATGATTGTTCTCCCAGCTGATGAATTGATAGGGTCGAGTAAACAAATTTTCCTAATCTTTCTGTTCAAGCGCCATCTAC”, for which the binding signal (RPM ratio (pull-down/input)) was 0.448. For the sequence “GATGATTGTTCTCCCAGCTGATGAATTTTAGCCGTCGAGTAAACAAATTTTCCTAATCTTTCTGTTCAAGCGCCATCTAC”, the binding signal (RPM ratio (pull-down/input)) came out at 0.479. As for “GATGATTGTTCTCCCAGCTGATGAATTCGACGACTCGAGTAAACAAATTTTCCTAATCTTTCTGTTCAAGCGCCATCTAC”, the binding signal (RPM ratio (pull-down/input)) turned out to be 0.367. Under “GATGATTGTTCTCCCAGCTGATGAATTTAGACTCTCGAGTAAACAAATTTTCCTAATCTTTCTGTTCAAGCGCCATCTAC” stands 2.16.
